Experimental data as given in PubChem BioAssay AID624171 (National Center for Advancing Translational Sciences (NCATS), 2012).
About 1,200 (0.29%) of roughly 410,000 compounds were called active. This list was built around the results that the source calls inconclusive (neither active nor inactive); the mix of calls is not that of the screen. Calls follow the shape of the dose curve; as a rule, active = well fitted activation curve with a large enough effect; inconclusive = small, poorly fitted or top-dose-only effect; inactive = flat fitted curve, though single readings scatter. A potency beside an inconclusive call is a rough fit, not a confirmed value.

Test: qHTS of Nrf2 Activators; also: nearly all actives have a fitted effect of over 65% in size
Conditions: AREc32 ARE-luciferase reporter (MCF7-derived line), luminescence, 24 h; series mostly up to 46.1 µM
Outline: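 Cells of the AREc32 ARE-luciferase line are plated in OPTI-MEM containing 5% FBS and left overnight at 37 deg C. Compounds are pinned in, incubation continues 24 hr, and firefly luciferase signal is then measured.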
Potency is read from the fitted curve at half-maximal effect; tags tell the direction and shape of the fitted curve.

Potency, inconclusive:
Cc1ccc([N+](=O)[O-])cc1NC(=S)NC(=O)c1ccco1 6.31 µM [activator, full curve, poor fit]
COc1ccc(Cl)cc1C(=O)NC(=S)Nc1nc(C)cc(C)n1 2 µM [activator, full curve]
Cc1ccc(NC(=O)c2ccc([N+](=O)[O-])o2)c(C)c1 3.55 µM [activator, single point]
Cn1ncc(Cl)c(Oc2ccc(Cl)cc2)c1=O 22.4 µM [activator, single point]
O=C(/C=C/c1ccccc1[N+](=O)[O-])OCC(=O)c1ccccc1 17.8 µM [activator, single point]
COCCN=c1scc(-c2cccs2)n1/N=C/c1ccc(O)c(O)c1O 12.6 µM [activator, single point]
Cc1cc(-c2cc(C(=O)NCc3ccccc3)on2)nc(S(C)(=O)=O)n1 31.6 µM [activator, single point]
CC(C)S(=O)(=O)c1oc(-c2ccc(F)cc2)nc1S(=O)(=O)c1ccc(F)cc1 3.16 µM [activator, single point]
COc1ccccc1CCNC(=O)CSc1ccc(-c2ccco2)nn1 22.4 µM [activator, single point]
C1=C(c2ccccc2)Nc2nnnn2C1c1cccs1 (centres undefined) 11.2 µM [activator, partial curve, poor fit]
CC(=O)Nc1ccc(/C=C/C(=O)c2ccc3c(c2)OCCO3)cc1 25.1 µM [activator, single point]
N#Cc1c(-c2cccc(Br)c2)cc(-c2ccco2)[nH]c1=O 22.4 µM [activator, single point]
O=C(NC(=S)Nc1nc2ccccc2s1)c1ccco1 2.51 µM [activator, full curve, poor fit]
COC(=O)c1ccc2oc(=O)c(S(=O)(=O)c3ccc(C)cc3)cc2c1 20 µM [activator, single point]
Cc1nn(-c2ccccc2)c(C)c1NC(=O)CCl 31.6 µM [activator, single point]
CC(=O)Nc1cccc(-c2nnc(SCC(=O)c3cc([N+](=O)[O-])ccc3Br)o2)c1 22.4 µM [activator, single point]
Cc1[nH]c2ccccc2c1/C=N/NC(=O)c1cccs1 11.2 µM [activator, partial curve, poor fit]
O=C(Cn1ncc(Cl)c(Cl)c1=O)N1CCN(Cc2ccccc2)CC1 3.55 µM [activator, partial curve, poor fit]
CCOC(=O)C(=Cc1ccc(Br)cc1)C(=O)OCC 3.55 µM [activator, single point]
Cc1cc(C)n(CCCN2C(=O)c3cccc4cccc(c34)C2=O)n1 22.4 µM [activator, single point]
COc1ccccc1C(=O)CSc1ccccn1 22.4 µM [activator, single point]
C=C1C(=O)[C@]23C[C@H]1CCC2[C@]1(C)C(=O)CC[C@@](C)(C(=O)O)C1C[C@@H]3O (some centres undefined) 3.16 µM [activator, single point]
CC(C)c1cc(CN2C(C)COCC2C)cc(C(C)C)c1O (centres undefined) 22.4 µM [activator, single point]
O=C(C#Cc1ccccc1)Nc1ccc(F)cc1 10 µM [activator, partial curve]
Clc1cccc(Cl)c1C1Nc2cccc3cccc(c23)N1 15.8 µM [activator, single point]
Oc1ccc(C2CNCc3sccc32)cc1O (centres undefined) 35.5 µM [activator, single point]
COc1ccc(-c2nc(-c3ccccc3)no2)c(OC)c1 3.98 µM [activator, partial curve, poor fit]
COCCNC(=O)c1cc(-c2cccc(Cl)c2)on1 20 µM [activator, single point]
Cc1ccc(N/C=C(\C2OC(=O)c3ccccc32)[N+](=O)[O-])c(C)c1 (centres undefined) 35.5 µM [activator, single point]
O=C(N/N=C/C(Br)=C/c1ccccc1)c1cnccn1 2.82 µM [activator, partial curve, poor fit]
O=[N+]([O-])c1ccc(N/N=C2/CCCCC2c2ccccn2)c([N+](=O)[O-])c1 (centres undefined) 15.8 µM [activator, single point]
CCCCS/C(=C(/C#N)C(N)=O)c1cc2c([nH]1)CCCC2 17.8 µM [activator, single point]
C=C1CCC[C@]2(C)C[C@H]3OC(=O)C(CNC(CC)CO)[C@H]3CC12 (some centres undefined) 17.8 µM [activator, partial curve, poor fit]
COc1ccc(C(=O)CSC#N)cc1OC 28.2 µM [activator, single point]
Cc1cccc(NCCC(=O)c2ccc([N+](=O)[O-])cc2)c1C 17.8 µM [activator, single point]
Oc1sc(C=Nc2ccc(F)cc2)c2ccccc12 7.08 µM [activator, partial curve, poor fit]
O=C(NC(=S)Nc1nc(-c2ccccc2)cs1)c1ccco1 2.51 µM [activator, full curve, poor fit]
CC(=O)NC(c1ccco1)c1cc(Cl)c2ccccc2c1O (centres undefined) 15.8 µM [activator, single point]
COc1ccc(/C=C/C(=O)c2ccccc2)cc1COc1ccccc1F 31.6 µM [activator, single point]
O=C1/C(=C\c2cccnc2)Sc2ccccc21 17.8 µM [activator, single point]
COc1ccc(-c2cc(C(F)(F)F)nc(S(=O)(=O)CCCC(=O)Nc3cc(C)on3)n2)cc1OC 5.62 µM [activator, single point]
Cc1nc(SCc2ccccc2)c2ccsc2n1 14.1 µM [activator, single point]

Potency, active:
Cc1cccc(C)c1OCC(=O)N/N=C/C=C/c1ccco1 1.58 µM
COc1cc2cnc(-c3ccsc3)cc2cc1OC 4.47 µM
Cc1csc(NC(=O)Nc2ccccc2[N+](=O)[O-])n1 4.47 µM
O=C(Nc1cccc2ncccc12)c1ccccc1F 12.6 µM
FC(F)(F)c1cccc(-c2nc(-c3ccncc3)no2)c1 11.2 µM
CCn1nc(C(=O)NNC(=O)c2ccccc2)c2ccccc2c1=O 15.8 µM
O=c1[nH]c2cc([N+](=O)[O-])ccc2c2cc(Br)ccc12 3.16 µM
COc1cccc(-c2noc(-c3cc4ccccc4oc3=O)n2)c1OC 11.2 µM

Potency, inactive:
Cc1cc(Nc2cccc(Cl)c2)nc2ccc(NC(=O)c3ccc(F)cc3Cl)cc12
O=C(c1ccco1)[C@@H]1[C@@H]2C(=O)N(c3ccccc3)C(=O)[C@@H]2C2c3ccccc3C=CN21 (some centres undefined)
COc1ccc(C2C(C#N)=C3NC(=O)c4c(sc5c4CCCCC5)N3C3=C2C(=O)CC(C)(C)C3)cc1 (centres undefined)
COC(=O)C(Cc1ccc(O)cc1)NC(=O)C(C)NC(=O)c1ccc(C(C)(C)C)cc1 (centres undefined)
CCc1nnc(NS(=O)(=O)c2ccc(NC(=S)NC(=O)/C=C/c3ccc([N+](=O)[O-])cc3)cc2)s1
CC(=O)N(C1=C(Cl)C(=O)c2ccccc2C1=O)C1CCCCC1
Cc1c(Cl)cccc1Nc1nc(N)nc(CSc2ncccn2)n1
O=C(NCc1cccnc1)c1ccc(CN2CCc3ccccc3C2)cc1
CCC(C(=O)NCc1ccccc1Cl)n1c(=O)c2cccn2c2ccccc21 (centres undefined)
Cc1ccc(CNC(=O)c2ccc(N3CCC4(CC3)CC(c3ccccc3)=NO4)c(N)c2)cc1
Cc1ccc(S(=O)(=O)Nc2ccc3ncccc3c2[N+](=O)[O-])cc1
Clc1ccccc1/C=N/NC1=Nc2cccc3cccc1c23
CCOC(=O)c1sc(NC(=O)c2cc(-c3ccc(C)cc3)nc3ccccc23)c(C#N)c1C
CCC(=O)Nc1ccc(NC(=O)c2ccccn2)cn1
CCC1CCCN1Cn1cnc2c([nH]c3ccc(C)cc32)c1=O (centres undefined)
Cc1ccc(-n2ncc(C(=O)N3CCN(C(=O)c4ccco4)CC3)c2-n2cccc2)cc1
CCCNC(=O)c1nnsc1S(=O)(=O)c1ccc(Cl)cc1
CCOC(=O)c1sc2nc(CC(=O)OC)nc(NCc3ccc(Cl)cc3)c2c1C
Cc1ccc(NC(=O)CCN2C(=O)c3ccccc3Sc3ncccc32)cc1
COc1ccc(C)cc1NC(=O)CSc1ncc2c(n1)-c1ccc(Cl)cc1N(Cc1ccccc1)S2(=O)=O
CCC(C)[C@H](NC(=O)N1CCN(c2cccc(C(F)(F)F)c2)CC1)C(=O)OC (some centres undefined)
COc1ccccc1-c1ccc2nnc(SCC(=O)N3CCCC3)n2n1
CCCN(c1ccccc1F)S(=O)(=O)c1cc(-c2cc(C)no2)ccc1C
Cc1c(C(=O)NCc2ccccc2C(F)(F)F)sc(=O)n1Cc1ccc2c(c1)OCO2
